{"source": "PubChem BioAssay AID1461", "about": "(National Center for Advancing Translational Sciences (NCATS), 2008)", "note": "The campaign covered roughly 220,000 compounds. About 2,300 (1%) were called active. The shares of active, inactive and inconclusive entries below differ from those in the screen. Calls come from the whole dose curve; as a rule, active = well fitted inhibition curve with a large enough effect; inconclusive = small, poorly fitted or top-dose-only effect, or effect the other way; inactive = no such curve, though single readings can be large or run the other way. No potency is given beside an inconclusive call; the fits are too rough. Potency is the fitted concentration of half-maximal effect; tags give direction and shape of the fitted curve.", "data": [{"biological_target": "Neuropeptide S receptor (Homo sapiens) (UniProt Q6W5P4)", "sequence (Q6W5P4 whole entry, looked up)": "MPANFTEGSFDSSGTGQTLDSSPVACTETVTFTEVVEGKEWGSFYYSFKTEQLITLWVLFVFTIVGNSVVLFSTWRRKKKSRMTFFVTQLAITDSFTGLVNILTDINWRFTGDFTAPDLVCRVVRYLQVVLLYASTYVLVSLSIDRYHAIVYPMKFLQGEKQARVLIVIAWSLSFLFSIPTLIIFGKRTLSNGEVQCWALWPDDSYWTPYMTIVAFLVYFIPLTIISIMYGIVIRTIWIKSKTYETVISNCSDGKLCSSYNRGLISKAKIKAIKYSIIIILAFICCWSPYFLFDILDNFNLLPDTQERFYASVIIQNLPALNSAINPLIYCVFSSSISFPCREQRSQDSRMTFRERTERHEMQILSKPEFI", "assay": "qHTS Assay for Antagonists of the Neuropeptide S Receptor: cAMP Signal Transduction; note: nearly all actives have a fitted effect of over 50% in size", "settings": "CHO-NPSR cells, cAMP TR-FRET, antagonist mode; series mostly up to 38.3 µM", "values": [{"molecule": "O=C(CSc1nc2ccccc2c(=O)n1NC(=O)Cc1ccccc1)NCc1ccccc1", "Potency": "inconclusive [inhibitor, partial curve]"}, {"molecule": "CCC(CC)C(=O)Nc1cccc(C(=O)Nc2ccc3c(c2)OCO3)c1", "Potency": "inactive"}, {"molecule": "COc1ccc(S(=O)(=O)N2CCCC2C(=O)Nc2ccc(O)cc2)cc1", "note": "(centres undefined)", "Potency": "inconclusive [inhibitor, single point]"}, {"molecule": "O=C(N/N=C/C1CC=CCC1)c1ccc(O)cc1O", "note": "(centres undefined)", "Potency": "inactive"}, {"molecule": "O=C(Cn1c(NCCO)nc2ccccc21)c1ccc(Cl)cc1", "Potency": "inconclusive [inhibitor, single point]"}, {"molecule": "CC(C)Cn1c(N)c(C(=O)COC(=O)c2ccc([N+](=O)[O-])o2)c(=O)n(C)c1=O", "Potency": "inactive"}, {"molecule": "Cc1cc(-c2nnc(-c3ccccc3)c(-c3ccccc3)n2)c(C)o1", "Potency": "inconclusive [inhibitor, partial curve]"}, {"molecule": "CCN(CC)c1ccc(/C=N/n2c(-c3ccccc3Br)n[nH]c2=S)cc1", "Potency": "inconclusive [inhibitor, single point]"}, {"molecule": "COc1ccc(N2C(=O)CSC23C(=O)N2c4c(cccc43)C(C)=CC2(C)C)cc1", "note": "(centres undefined)", "Potency": "inconclusive [inhibitor, single point]"}, {"molecule": "C=CCOC(=O)C1=C[C@H](C2CCCCC2)[C@@H](CCCO)[C@H](OCC)O1", "Potency": "inconclusive [activator, single point]"}, {"molecule": "O=P(c1ccccc1)(c1ccccc1)c1nc(-c2ccccc2)oc1N1CCOCC1", "Potency": "inactive"}, {"molecule": "CCOc1ccc(-n2c(SCc3nc(-c4ccc(C)cc4)no3)nnc2-c2ccncc2)cc1", "Potency": "inconclusive [inhibitor, single point]"}, {"molecule": "O=C1N/C(=N\\N=C\\c2cccnc2)SC1Cc1ccc(SC(F)F)cc1", "note": "(centres undefined)", "Potency": "inconclusive [inhibitor, single point]"}, {"molecule": "Oc1ccc2[nH]ccc2c1", "Potency": "inconclusive [inhibitor, single point]"}, {"molecule": "Cc1cc(Cl)ccc1OC(C)C(=O)Nc1ccccc1N1CCOCC1", "note": "(centres undefined)", "Potency": "inconclusive [inhibitor, single point]"}, {"molecule": "CCc1nn(C(C)C(=O)N2CCc3ccccc3C2)c(=O)c2cc3occc3n12", "note": "(centres undefined)", "Potency": "inconclusive [inhibitor, full curve]"}, {"molecule": "O=C(NCCC1=CCCCC1)c1cccc2c1C(=O)N(C1CCCCC1)C2", "Potency": "inconclusive [inhibitor, single point]"}, {"molecule": "Fc1ccc2[nH]c3c(N4CCSCC4)ncnc3c2c1", "Potency": "inconclusive [inhibitor, single point]"}, {"molecule": "COc1ccc(-c2cc3nc(-c4ccccc4)cc(N4CCC(O)CC4)n3n2)cc1", "Potency": "inconclusive [activator, single point]"}, {"molecule": "O=C(Oc1ccc2c(=O)c(Cl)coc2c1)c1cccnc1", "Potency": "inactive"}, {"molecule": "CCc1ccc2[nH]c(O)c(N=NC3=NC(=O)CS3)c2c1", "Potency": "inconclusive [activator, single point]"}, {"molecule": "CCOC(=O)c1c(NC(=O)c2ccco2)sc2c1CCCCC2", "Potency": "inconclusive [inhibitor, single point]"}, {"molecule": "CC(C)Cc1nc(N2CCN(C(=O)c3ccco3)CC2)c(C#N)c2c1CCC2", "Potency": "inconclusive [inhibitor, partial curve, poor fit]"}, {"molecule": "COc1cc2[nH]c3c(N4CCN(c5ccccn5)CC4)ncnc3c2cc1OC", "Potency": "inconclusive [inhibitor, partial curve, poor fit]"}, {"molecule": "O=C(Nc1ccc2ncccc2c1)Nc1ccc2ncccc2c1", "Potency": "inactive"}, {"molecule": "O=C(/C(=C\\c1ccccc1)c1nc2ccccc2[nH]1)c1ccc(Cl)cc1", "Potency": "active: 10 µM"}, {"molecule": "CCN(CC)S(=O)(=O)c1ccc2oc(C(=O)NCc3ccc(F)cc3)c(C)c2c1", "Potency": "inconclusive [inhibitor, partial curve]"}, {"molecule": "CC1CC(C)CN(S(=O)(=O)c2ccc(C(=O)N3CCN(c4ccccc4)CC3)cc2)C1", "note": "(centres undefined)", "Potency": "inconclusive [inhibitor, single point]"}, {"molecule": "CCOc1ccc(C(C)=O)cc1CSc1nnc(N)s1", "Potency": "inactive"}, {"molecule": "COc1ccc(CN2CC(C(=O)NCCN3CCOCC3)CC2=O)cc1", "note": "(centres undefined)", "Potency": "inactive"}, {"molecule": "COc1ccc(Nc2ccc(OC)cc2)cc1", "Potency": "inconclusive [inhibitor, single point]"}, {"molecule": "COc1ccc(/C=C/C(=O)NC(=S)NNC(=O)Cc2cccs2)cc1", "Potency": "inconclusive [inhibitor, single point]"}, {"molecule": "CCN(C(=O)CSc1ncccc1C(=O)OC(C)C)c1cccc(C)c1", "Potency": "inconclusive [inhibitor, single point]"}, {"molecule": "Cc1cc(NC(=O)CCCS(=O)(=O)c2nc(-c3cccs3)cc(C(F)(F)F)n2)no1", "Potency": "inconclusive [inhibitor, partial curve]"}, {"molecule": "CC1=CC(C)(C)Nc2ccc(OC(=O)C(Cc3ccccc3)N3C(=O)C4CCCCC4C3=O)cc21", "note": "(centres undefined)", "Potency": "inconclusive [inhibitor, single point]"}, {"molecule": "CC(C)c1ccc(/C=N/NC(=O)C(=O)NCCCN2CCOCC2)cc1", "Potency": "inactive"}, {"molecule": "CC(C)(C)c1ccc(S(=O)(=O)Nc2ccccn2)cc1", "Potency": "inactive"}, {"molecule": "CCOC(=O)N1CCN(CC(=O)Nc2c(C(=O)OC)[nH]c3ccc(Cl)cc23)CC1", "Potency": "inconclusive [inhibitor, single point]"}, {"molecule": "O=C(NCc1ccco1)c1sc2cc(Cl)ccc2c1Cl", "Potency": "inconclusive [inhibitor, single point]"}, {"molecule": "Cc1ccc(S(=O)(=O)N(Cc2cc3cc4c(cc3[nH]c2=O)OCCO4)CC2CCCO2)cc1", "note": "(centres undefined)", "Potency": "inconclusive [inhibitor, single point]"}, {"molecule": "COc1cccc(C(=O)CN(C(=O)c2ccc(Cl)c(Cl)c2)N2C(=O)c3ccccc3C2=O)c1", "Potency": "inconclusive [inhibitor, single point]"}, {"molecule": "CC(C)CC(c1nnnn1Cc1ccccc1)N1CCN(C(=O)c2ccco2)CC1", "note": "(centres undefined)", "Potency": "inconclusive [inhibitor, single point]"}, {"molecule": "Cc1cccc(-n2ncc3c(NC4CCCCC4)ncnc32)c1", "Potency": "inconclusive [inhibitor, partial curve]"}, {"molecule": "Cc1nc(-c2ccccc2)sc1C(=O)NN", "Potency": "inactive"}, {"molecule": "O=C(C1=C(O)C(=O)N(CCOCCO)C1c1cccs1)c1cccs1", "note": "(centres undefined)", "Potency": "inactive"}, {"molecule": "Fc1cccc(CSc2ncnc3c2oc2ccccc23)c1", "Potency": "inconclusive [activator, single point]"}, {"molecule": "O=C(/C=C/c1ccccc1)Nc1sc2c(c1C(=O)O)CCC2", "Potency": "inconclusive [inhibitor, single point]"}, {"molecule": "CCCn1c(=O)c(C(=O)NCc2ccc(OC)c(OC)c2)c(O)c2ccccc21", "Potency": "inconclusive [inhibitor, single point]"}, {"molecule": "O=C1C(=O)N(c2ccccc2)c2ccccc21", "Potency": "inconclusive [activator, single point]"}, {"molecule": "CCCS(=O)(=O)c1c(S(=O)(=O)CCC)c2cnccn2c1C(=O)c1ccc(Cl)cc1", "Potency": "inconclusive [inhibitor, partial curve]"}, {"molecule": "Cc1c(C(=O)O)sc2nc(CSc3nnc(-c4ccc(F)cc4)n3C)[nH]c(=O)c12", "Potency": "inactive"}, {"molecule": "COc1ccc(NC(=O)c2cc(-c3ccc(C)o3)nc3ccccc23)cc1OC", "Potency": "inconclusive [inhibitor, partial curve]"}, {"molecule": "O=C(c1ccc(Cl)cc1)c1oc2ccccc2c1CS(=O)c1ccccc1", "note": "(centres undefined)", "Potency": "inconclusive [inhibitor, single point]"}, {"molecule": "CCN(CC)P(=O)(Nc1ccc(SC(F)F)cc1)c1ccc(N(C)C)cc1NC(=O)c1ccco1", "note": "(centres undefined)", "Potency": "active: 5.01 µM"}, {"molecule": "Cc1cc(C)c([N+](=O)[O-])cc1-c1ccc(/C=N/NC(=O)c2nonc2N)o1", "Potency": "inconclusive [inhibitor, single point]"}, {"molecule": "OCCCc1nc2n(n1)C(c1cccs1)C=C(c1ccccc1)N2", "note": "(centres undefined)", "Potency": "inactive"}, {"molecule": "CC(=O)c1c(C)[nH]c(C(=O)OCC(=O)Nc2cccc(S(=O)(=O)N3CCCC3)c2)c1C", "Potency": "inactive"}, {"molecule": "CN(C)c1oc(COc2ccc(F)cc2)nc1C#N", "Potency": "inactive"}, {"molecule": "Cc1ccc(C2(O)C(=O)c3ccccc3C2=O)c(O)c1C", "Potency": "inconclusive [activator, single point]"}, {"molecule": "Cc1ccc(O)c(CNc2ccccn2)c1", "Potency": "inconclusive [inhibitor, single point]"}, {"molecule": "O=C1CSC(c2cccnc2)N1c1cccc(Cl)c1", "note": "(centres undefined)", "Potency": "inactive"}, {"molecule": "CCOc1ccc(C(=O)Nc2ccc(NC(=O)c3ccco3)c(Cl)c2)cc1Br", "Potency": "inconclusive [inhibitor, single point]"}, {"molecule": "O=c1c2c(nc3n1CCCCC3)-c1ccccc1CC21CCCCC1", "Potency": "inconclusive [inhibitor, single point]"}, {"molecule": "COc1ccc2[nH]c(=O)c(CN(Cc3cccs3)S(=O)(=O)c3cccc4nsnc34)cc2c1", "Potency": "inconclusive [inhibitor, partial curve]"}, {"molecule": "C#Cc1ccc([C@H]2C=C(C(=O)NCc3ccccc3)O[C@@H](OCC)[C@@H]2CCCO)cc1", "Potency": "inconclusive [activator, partial curve]"}, {"molecule": "CC(=O)C1=C(C)N(c2ccccc2)C(=O)C1(NS(=O)(=O)c1ccc(N)cc1)C(F)(F)F", "note": "(centres undefined)", "Potency": "inactive"}, {"molecule": "Cc1ccc(C)c(NC(=O)CSc2nnc(CCCCCNC(=O)OC(C)(C)C)o2)c1", "Potency": "inconclusive [inhibitor, partial curve]"}, {"molecule": "COc1cc(S(=O)(=O)Nc2ccc3cn[nH]c3c2)ccc1Cl", "Potency": "inactive"}, {"molecule": "CC1CCC(NC(=O)C2CCC(CNS(=O)(=O)c3cccc4nsnc34)CC2)CC1", "note": "(centres undefined)", "Potency": "inconclusive [inhibitor, single point]"}]}]}
